Test results: ChEMBL document CHEMBL1157539, “Thousands of chemical starting points for antimalarial lead identification” (Nature, 2010)
“And” between values parts separate entries of the source, which are not always exact repeats. Equal entries are not always repeated. Whole data set: some 13,000 compounds, median “IFI” near 4, cut for the highest 2% near 17. The list shows a part of the results.

Test: GSK_TCMDC: Inhibition Frequency Index (IFI). The number of non-kinase HTS assays where a compound showed > 50 % inhibition, expressed as a percentage of the number of such assays in which the compound was tested (-0 is zero)
Format: functional
`Cc1ccc(-c2noc(=O)n2CC(=O)Nc2ccccc2-c2ccccc2)cc1` showed an IFI of 0.75%.
With `COc1ccc2ncc(F)c(CCN3CC(O)C(CNCc4ccc5c(c4)OCCO5)C3)c2n1` (centres undefined) the IFI was 2.94%.
`CC1Cc2ccccc2N1S(=O)(=O)c1cccc(C(=O)Nc2nc(-c3ccccn3)cs2)c1` (centres undefined) gave an IFI of 10.6%.
Compound `N#Cc1cccc(C(=O)Nc2ccc(-c3cccc(CN4CCC(O)CC4)c3)cc2)c1` has an IFI of 0%.
For `COc1ccccc1-c1csc(C(=O)NC2CCCCN(Cc3ccc(C(C)(C)C)cc3)C2)c1` (centres undefined), the IFI was 1.96%.
Compound `C=CCOc1ccc(-c2c(C)[nH]c(C)c(Br)c2=O)cc1` has an IFI of 0.93%.
`O=C(/C=C/c1ccc(Cl)c(Cl)c1)NCCCCCCN1CCN(C(=O)Nc2cc(Cl)nc(Cl)c2)CC1` showed an IFI of 3.17%.
Work on `N#Cc1ccc2c(c1)CCN(CCCn1c(-c3ccc4ccccc4c3)nc3ccncc31)CC2` yielded an IFI of 5.67%.
Compound `CC(C)N1CCN(C(=O)c2ccc(CN(C)CCCN3CCN(c4cccc(Cl)c4Cl)CC3)s2)CC1` has an IFI of 16.9%.
Compound `Cc1cccc2nc(-c3cccc(-c4cccc(NC(=O)Cc5ccc[n+]([O-])c5)c4)c3)[nH]c12` has an IFI of 0.9%.
For `Cc1cccc2sc(N(CCCn3ccnc3)C(=O)C=Cc3cccs3)nc12`, the IFI was 4.08%.
In the case of `CN(C)c1ccc(C=CC(=O)NC(=O)c2ccccc2O)cc1`, the IFI was 8.33%.
`COc1ccc(CNCc2ccc(-c3ccc(-c4nc5cc(C(F)(F)F)ccc5[nH]4)cc3)cc2)cc1` gave an IFI of 16.2%.
For `CCOC(=O)c1ccc(N2CCCCC2)c(NC(=O)C(Cl)(Cl)Cl)c1`, the IFI was 1.47%.
With `COc1cc2nc(N3CCC(CNC(=O)c4ccc(-c5ccc(-c6noc(C)n6)cc5C)cc4)CC3)nc(N)c2cc1OC` the IFI was 7.89%.
`C[C@H](Nc1nc(C(Oc2ccccc2)c2ccccc2)nc2[nH]ncc12)c1ccccc1` (some centres undefined) showed an IFI of 5.56%.
Compound `N#Cc1ccc(N2C[C@@H](OCc3ccccc3)C[C@H]2C(=O)NCCC(c2ccccc2)c2ccccc2)c2ccccc12` has an IFI of 0.72%.
`Cc1cc(=NN=Cc2ccc(F)cc2)c2ccc(C(F)(F)F)cc2[nH]1` gave an IFI of 1.49%.
Work on `O=C(/C=C/c1ccc(Cl)c(Cl)c1)N1CCC(CN2CCC(Cc3c[nH]c4ccccc34)CC2)CC1` yielded an IFI of 0.72%.
Work on `c1cc2c3c(cccc3c1)NC(CCCCCCCCC1=Nc3cccc4cccc(c34)N1)=N2` yielded an IFI of 2.33%.
In the case of `C=C(C)C1CC=C(CN2CCC(N3CCc4cc(NC(=O)c5cc(C)on5)ccc43)C2)CC1` (centres undefined), the IFI was 0%.
In the case of `Nc1nonc1-c1nc2c(-c3cccc(Cl)c3)nccc2n1CCCNC(=O)Cc1ccc(Cl)cc1`, the IFI was 0.81%.
With `Cc1cc(N[C@@H](Cc2ccccc2)C(=O)Nc2ccccc2)nc(NCCc2ccccn2)n1` the IFI was 4.55%.
Work on `O=C1CCCN1CCCNCc1cccc(-c2ccc(-c3nc4cc(C(F)(F)F)ccc4[nH]3)cc2)c1` yielded an IFI of 5.88%.
For `O=C(Nc1ccc2c(c1)CCN2C1CCN(Cc2csc3ccccc23)C1)c1ccco1` (centres undefined), the IFI was -0%.
In the case of `O=[N+]([O-])c1cccc(-c2nc3cc(C4=NC5CCCCC5N4)ccc3[nH]2)c1` (centres undefined), the IFI was 1.4%.
Compound `CCCCNCCOc1ccc(-c2nc(-c3ccccc3)c(-c3ccccc3)[nH]2)cc1` has an IFI of 5.51%.
Work on `c1ccc(C2CCN(Cc3ccc(-c4c[nH]c5nc(NC6CCCC6)ncc45)cc3)CC2)cc1` yielded an IFI of 3.51%.
`Cc1ccc(NC(=O)c2ccc3ncccc3c2)cc1OC1CCN(Cc2ccc(F)cc2)C1` (centres undefined) showed an IFI of 3.28%.
`CC(C)CC(NC(=O)c1ccc(F)cc1)C(=O)N[C@H](/C=N/N1CCNC1=O)CC(C)C` (some centres undefined) gave an IFI of 1.8%.
`FC(F)(F)c1ccc2[nH]c(-c3ccc(-c4ccc(CNCCN5CCNCC5)cc4)cc3)nc2c1` gave an IFI of 14.7%.
Work on `Oc1ccc2nc(NCCCc3ccccc3)nc(NCCCc3ccccc3)c2c1` yielded an IFI of 10.9%.
Work on `CN(C)CCOc1ccc(NC(=O)Nc2ccnc3c(Br)cccc23)cc1Cl` yielded an IFI of 2.08%.
`COC(=O)c1ccc2nc(-c3cc(-c4cccc(-c5ccccc5)c4)cnc3N)[nH]c2c1` gave an IFI of 2.94%.
Work on `CN1CCN(c2ccnc3ccc(NC(=O)Cc4ccc(OCc5ccccc5)cc4)cc23)CC1` yielded an IFI of 2.19%.
`CN(Cc1ccccc1)C(=O)c1nn(CCCN2CCC(N3CCCC3)CC2)cc1-c1ccc(Cl)c(Cl)c1` gave an IFI of 10.7%.
In the case of `COc1cc(NC(=O)c2ccc3oc4ccccc4c3c2)ccc1OCCN1CCCCC1`, the IFI was 3.7%.
With `Cc1ccccc1C1CCN(C2CCC(NC(=O)c3ccc(-c4ccccc4)s3)CC2)CC1` (centres undefined) the IFI was 5.36%.
With `O=C(Nc1cccc(-c2cccc(CN3CCCC3)c2)c1)c1ccc(Cl)cc1` the IFI was 5.66%.
In the case of `CCCC(C)Nc1nc(C)cc(N[C@@H](Cc2ccccc2)C(=O)NCc2ccc(C)cc2)n1` (some centres undefined), the IFI was 11.6%.
With `COc1cccc(C2C(C(=O)Nc3ccccc3)=C(C)N=c3sc(=Cc4ccc(O)cc4)c(=O)n32)c1` (centres undefined) the IFI was 1.99%.
`O=C(Nc1ccccc1Br)c1cn(-c2ccccc2)nc1-c1cccc([N+](=O)[O-])c1` showed an IFI of 2.44%.
Work on `CCc1nc2nc(C)cc(Nc3ccc4c(c3)OCCO4)n2n1` yielded an IFI of 0%.
In the case of `Cn1nc(-c2ccc(CN[C@@H]3CCc4ccc(O)cc43)cc2)c2cnc(NCCCN3CCCC3)nc21`, the IFI was 7.14%.
Work on `O=C(c1cc(C(=O)NC2CCCCC2)c(=O)n(C2CCCCC2)c1)c1cc(F)ccc1O` yielded an IFI of 19.4%.
With `CC(=O)N[C@H](C(=O)Nc1ccc(-c2ccc(-c3nc4cc(C(F)(F)F)ccc4[nH]3)cc2)cc1)C(C)C` the IFI was 3.6%.
With `CN(C)CCN(C)Cc1ccc(-c2cccc(NC(=O)c3ccc(Cl)cc3)c2)cc1` the IFI was 3.88%.
`O=C(NCCc1ccccc1F)c1cc(Br)cc(N2CCN(c3ccncc3)CC2)c1` gave an IFI of 6.45%.
In the case of `COC(=O)c1ccc2c(c1)nc(Nc1cccc(F)c1)n2CC(O)c1ccccn1` (centres undefined), the IFI was 0%.
Compound `O=C(NCCCCN1CCC(c2ccc3c(c2OCC2COCO2)CCCC3)CC1)c1ccc(-c2ccc(C(F)(F)F)cc2)cc1` (centres undefined) has an IFI of 8.85%.
For `Cc1[nH]c(C)c(-c2ccc(OCc3cc(C(F)(F)F)cc(C(F)(F)F)c3)nc2)c(=O)c1Br`, the IFI was 5.36%.
`COc1ccc(NC(=O)c2csc(-c3cc(NC(=O)c4ccnc(N5CCCC5)c4)ccc3C)c2)cc1N1CCN(C)CC1` showed an IFI of 4.88%.
For `Cc1cccc2nc(-c3cccc(-c4ccc(CNCc5ccccc5)cc4)c3)[nH]c12`, the IFI was 12.5%.
With `O=C(Nc1ccc(OC2CCN(Cc3ccccc3)C2)c(Cl)c1)c1ccc(F)cc1` (centres undefined) the IFI was -0%.
Work on `CC1CCN(C(=O)C(Cc2c[nH]c3ccccc23)NS(=O)(=O)c2ccc(Cl)cc2)CC1` (centres undefined) yielded an IFI of 0.86%.
In the case of `CC(C)C1c2ccc(O)cc2CC2C(=O)N(C3CCCCC3)C(=O)N21` (centres undefined), the IFI was 0.79%.
With `CCCCCC(C)C(C)c1cc(O)c2c(c1)OC(C)(C)CC2c1cc[n+]([O-])cc1` (centres undefined) the IFI was 6.57%.
With `COc1ccc(Cn2ncc3c4c(N)nc(N)nc4ccc32)cc1OC` the IFI was 5.52%.
`CN1CCN(c2cc(-c3cccc(C(F)(F)F)c3)nc(-c3ccncc3)n2)CC1` gave an IFI of 4.17%.
For `COc1ccc(-c2cc(C(=O)N[C@@H](CC3CCCCC3)C(=O)NCCN3CCCCC3)ccc2O)cc1`, the IFI was 1.48%.
`Clc1ccc2nnc(-c3c(Cl)cccc3Cl)n2n1` gave an IFI of 6.67%.
`C=CCn1c(Sc2ccc(C#N)c([N+](=O)[O-])c2)nnc1-c1cccc(Cl)c1` gave an IFI of -0%.
`COc1ccc(CN2CCC(NCc3cccc(C(F)(F)F)c3)CC2)cc1` gave an IFI of 2.67%.
Compound `COc1ccc(NC(=O)Nc2nc(-c3ccc(Cl)c(C)c3)cs2)cc1N1CCN(C)CC1` has an IFI of 6.34%.
Compound `c1ccc(Oc2ccc(Nc3ccnc(Nc4ccc5cn[nH]c5c4)n3)cc2)cc1` has an IFI of 2.92%.
For `O=C(/C=C/c1ccccc1O)N1CCC(CCN2CCC(c3c[nH]c4ccccc34)CC2)CC1`, the IFI was 2.9%.
Compound `Cn1c(Nc2cc(C(C)(C)C)on2)nc2cc(Nc3ccnc(Nc4cccc(S(=O)(=O)N5CCOCC5)c4)n3)ccc21` has an IFI of 5.3%.
Work on `COc1cc(NC(=O)c2ccc(-c3ccc(C(C)=O)cc3)s2)ccc1OCCN1CCCC1` yielded an IFI of 5.94%.
`Cc1ccc(NC(=O)Nc2ccc(Cl)c(C(F)(F)F)c2)cc1-c1ccc(C(=O)Nc2ccncc2)cc1` showed an IFI of 18.3%.
Compound `COCCN(CCOC)c1ncc(-c2ccsc2)c(-c2nc(C)c(C)s2)n1` has an IFI of 2.3%.
With `NC(=O)c1cccc(Nc2nccc(Nc3ccc4[nH]c(-c5ccccc5)cc4c3)n2)c1` the IFI was 7.52%.
`CC(C)Cn1cc(C2CCN(CCN3CCC(CNC(=O)c4ccc(-c5ccc(C(F)(F)F)cc5)cc4)CC3)CC2)c2ccccc21` showed an IFI of 9.17%.
Compound `NC1CCN(Cc2ccc(-c3cccc(-c4nc5ccccc5[nH]4)c3)cc2)C1` (centres undefined) has an IFI of 2.82%.
With `CCOc1c(CNCCCCCCNCc2ccc3ccccc3c2OCC)ccc2ccccc12` the IFI was 22%.
Compound `Clc1ccc(Nc2nc3nonc3nc2Nc2ccc(Cl)c(Cl)c2)cc1` has an IFI of 19.4%.
In the case of `O=C1Nc2cccc3c2C1(CCCCN1CCC(c2cc4ccncc4[nH]2)CC1)CCC3` (centres undefined), the IFI was 1.45% and 2.82%.
In the case of `CCCCNC(=O)[C@@H](NC(=O)c1ccc(O)c(-c2ccc(Cl)c(Cl)c2)c1)C(C)C`, the IFI was 2.96%.
Work on `Cc1ccc(NC(=O)c2ccc(NCCCN3CC(C)CC(C)C3)c([N+](=O)[O-])c2)cc1F` (centres undefined) yielded an IFI of 2.21%.
Work on `c1ccc(CCNc2ncnc3c2[nH]c2ccccc23)cc1` yielded an IFI of 23.9%.
`O=C(NCCCNc1ccnc2cc(Cl)ccc12)c1ccccc1F` gave an IFI of 1.45%.
With `COc1ccc(N2CCN(CCCCNC(=O)c3ccc(NC(=O)c4cc(C(F)(F)F)cc(C(F)(F)F)c4)cc3)CC2)cc1OC` the IFI was 3.51%.
In the case of `CCN(C(=O)NC)C1c2cc(C#N)ccc2OC(C)(C)C1O` (centres undefined), the IFI was 0.71%.
`Cc1ccccc1N1CCN(c2ncc(C(=O)NC3CC3)cc2Cl)CC1` showed an IFI of 6.25%.
Work on `CN(C)c1ccc(NC(=O)Nc2ccnc3ccc(Br)cc23)cc1` yielded an IFI of 4.44%.
Work on `CCCNCc1c(O)ccc2c(CNCCC)c(O)ccc12` yielded an IFI of 2.94%.
Compound `COc1ccc(C(=O)Nc2ccc3nc(N4CCCCC4)cc(C)c3c2)cc1OC` has an IFI of 5.66%.
For `COc1ccc2ncc(C#N)c(CCN3CCC(NCc4ccc5c(c4)OCCO5)CC3)c2c1`, the IFI was 2.88%.
For `Cc1cccc2nc(-c3ccc(-c4cccc(CN5CCCC5CN)c4)cc3)[nH]c12` (centres undefined), the IFI was 5%.
For `CCC(C)c1ccc(Nc2nc(C)cc(N(CC)CCCN3CCCCC3)n2)cc1` (centres undefined), the IFI was 19.5%.
